Here are results for one substance from patent EP4480493A1, “A RECOMBINANT HUMAN ALPHA-1 ANTITRYPSIN GLYCOPROTEIN FOR TREATING NON-VIRAL INFLAMMATORY DISEASES OF THE LUNG” (AATEC Medical GmbH, priority 2023, dated 2024).

This assay addresses recombinant human TMPRSS2 enzyme (CusaBio #YP023924HU) (human) (UniProt O15393). Nature of the assay: cell-based or functional assay.

Regarding “NIBSC Standard Alpha-1-Antitrypsin, plasma derived (1st International standard) (#05/162 NIBSC) (from UniProt P01009 25-418)”, the TMPRSS2 IC50 (TMPRSS2 activity assay, fluorogenic BOC-Gln-Ala-Arg-AMC substrate) is 51.8 nM.
